In patent publication US11834430B2, “Compounds useful as inhibitors of isoprenylcysteine carboxyl methyltransferase” (AGENCY FOR SCIENCE, TECHNOLOGY AND RESEARCH, priority 2017, dated 2023):
Not every entry of the source has a single result; some have several. They are shown here; other results are not. The source may hold further records. Values that stand side by side seem to repeat one measurement; a mean can stand among them.

Molecular target: human ICMT (Homo sapiens (Human), UniProt O60725)
Sequence (O60725 whole entry): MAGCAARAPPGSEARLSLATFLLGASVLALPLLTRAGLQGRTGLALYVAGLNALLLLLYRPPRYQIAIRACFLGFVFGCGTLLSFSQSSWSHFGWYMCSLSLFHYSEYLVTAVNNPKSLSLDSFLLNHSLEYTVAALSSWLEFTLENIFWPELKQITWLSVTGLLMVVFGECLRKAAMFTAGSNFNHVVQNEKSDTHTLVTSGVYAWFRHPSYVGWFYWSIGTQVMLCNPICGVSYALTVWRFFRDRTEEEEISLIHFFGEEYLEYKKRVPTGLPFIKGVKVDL
Assay: ICMT biochemical assay (Methyltransferase-Glo)
Settings: ICMT membrane extract from Sf-9 cells; 30 min preincubation, 90 min reaction
Method: Recombinant human ICMT was prepared by infection of Sf9 cells with a recombinant baculovirus containing the entire open reading frame of the human ICMT cDNA.
Cells producing ICMT were harvested 66 hours post-infection. The cells are homogenized and resuspended in 5 mM NaHPO4 (pH 7.0), and a cocktail of protease inhibitors. The membrane was pelleted, after removal of nuclei and debris, at 100,000×g for 1 hour. Membranes were resuspended in 5 mM NaHPO4 (pH 7.0) with 5 mM EDTA at 10-12 mg/ml. The suspension was stored at −80° C. in multiple aliquots.
An ICMT enzymatic assay was developed using Promega's Methyltransferase-GloTMreagents. In the assay, ICMT catalyzes the methylation of the N-Acetyl-S-farnesyl-L-cysteine by transferring a methyl group from SAM to the farnesylated cysteine and further converts the SAM to SAH. The methyltransferase activity is measured based on the amount of SAH produced from the reaction through the use of coupling enzymes that convert the SAH to ATP. […]
A final concentration of 2.0 μM and 20 μM of SAM and peptide were added and further incubated for 90 minutes at room temperature before adding the MTase Glo and detection reagent. Reaction signals were detected using microplate readers on luminescent mode (Satire Tecan). The IC50 was determined by nonlinear regression, using GraphPad Prism version, 5.03.

IC50: 3 nM, 0.2 nM, 0.4 nM [one cell]
SMILES: Cc1nccn1-c1cccc(OCCOc2ccc(C#N)cc2Cl)c1 [Compound 5, 3-chloro-4-(2-(3-(2-methyl-1H-imidazol-1-yl)phenoxy)ethoxy)benzonitrile]
